Experimental data reported in the supplement of paper PMC3334620.
The full ranking holds about 33,000 sequences; the median of “E-score (-0.5 to 0.5)” is about -0.032, and the highest 2% start at about 0.36. This is one part of the list.

Biological target: T1, Sko1 (UniProt Q02100)
T1 sequence: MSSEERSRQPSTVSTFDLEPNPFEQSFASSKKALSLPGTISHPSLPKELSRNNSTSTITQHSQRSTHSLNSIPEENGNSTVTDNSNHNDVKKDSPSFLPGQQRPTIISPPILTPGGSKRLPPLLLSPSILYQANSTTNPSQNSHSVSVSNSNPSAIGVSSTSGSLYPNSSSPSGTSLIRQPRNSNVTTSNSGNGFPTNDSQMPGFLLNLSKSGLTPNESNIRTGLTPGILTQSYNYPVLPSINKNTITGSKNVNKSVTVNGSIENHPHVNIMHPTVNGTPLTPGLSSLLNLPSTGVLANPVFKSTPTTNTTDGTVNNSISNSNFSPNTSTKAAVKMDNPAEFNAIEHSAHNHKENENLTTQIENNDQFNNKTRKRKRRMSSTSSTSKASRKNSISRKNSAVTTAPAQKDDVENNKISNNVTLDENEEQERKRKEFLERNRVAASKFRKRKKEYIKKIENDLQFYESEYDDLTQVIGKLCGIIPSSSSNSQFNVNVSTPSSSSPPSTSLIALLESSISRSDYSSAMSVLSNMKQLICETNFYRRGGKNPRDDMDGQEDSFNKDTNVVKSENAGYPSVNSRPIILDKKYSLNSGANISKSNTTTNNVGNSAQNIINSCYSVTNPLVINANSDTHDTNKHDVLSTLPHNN
Experiment: PBM E-score (8-mer binding enrichment) (E-score (-0.5 to 0.5)); higher = stronger / more preferred TF binding; most listed sequences are background and not binding sites
Settings: protein concentration: 200 nM; construct: GST-full length
Method: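 Universal 'all 10-mer' protein binding microarrays (Agilent AMADID 015681) probed with GST-tagged S. cerevisiae TFs (full-length or DBD) made by in vitro transcription/translation (PURExpress), about 100-200 nM. Bound TF was detected with fluorescent anti-GST. Each ungapped 8-mer (which stands for itself and its reverse complement) is scored by the PBM enrichment score (E-score), a modified Wilcoxon-Mann-Whitney statistic from -0.5 to +0.5, computed with the Universal PBM Analysis Suite. Scale: above 0.35 generally sequence-specific binding.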

Sequence	PBM E-score
CGCTGGTA	-0.065
AGGAGGAA	-0.0768
ATACTGGG	-0.162
AACTAGTC	-0.174
AACGATCG	0.0421
ACCCAAGT	-0.191
AGCGTGAC	0.124
CTCTTCCC	-0.0957
CAGGAACC	-0.214
CACGTCAA	0.426
ATATCCAT	0.141
AGATCTAT	-0.0808
AATTGGTC	0.089
ACCGTTTG	-0.142
AGGGGTCC	-0.162
AGGGCCCC	-0.283
TGAGCGCA	-0.0878
CGCCCAGA	-0.252
CCTGGCGA	-0.35
TACCGTCA	0.266
AAAGTTGC	-0.0136
TAGCTCAA	0.0344
AAGGGGGA	-0.288
AGGTCTTG	-0.159
TGGCAACA	-0.0552

Sequence	PBM E-score
CGGAGGAA	-0.2
ATTGTATA	0.177
AATCCAGT	-0.0398
CAACAGGC	-0.168
CCTTAGGA	-0.0321
TATTTCAA	0.318
TTGCACAA	0.0801
CGATCATC	-0.0331
AAGGCGGT	-0.229
AGGCTAGG	-0.236
AGCATGTG	-0.141
CATGATGA	0.304
TACGCGAA	0.277
AAGTATCG	-0.0131
CCGCTAAA	-0.167
CCCAGCCC	-0.277
GGATCCAA	-0.00021
GCATTGCC	-0.21
CGCGGAAG	-0.227
GGAACGTA	0.289
ACCGGTGC	-0.133
AATAGTTC	0.163
AATAACTC	0.0275
ACCACGTG	0.362
ACGTGTAG	0.367

Sequence	PBM E-score
GCATCCCC	-0.226
GCATACAA	0.114
AACGGGAA	-0.0254
GGACTCTA	-0.24
ACGGCGAG	-0.0904
ATATCGGG	-0.0441
AATGAAGT	0.127
TCAAATGA	0.172
GAATAAAA	0.215
CGTCGGTA	0.128
AGTCACCC	-0.145
AGGGCAGC	-0.262
ATGCACAA	-0.00169
AAACATGG	-0.158
TCCTAAGA	-0.018
GTTGTAAA	0.101
ATATGATG	0.344
GCTTGATA	0.117
ACCAGCGC	-0.0872
AAGTGCAA	-0.0729
TGTGATAA	0.258
TGATTCAA	0.144
CACATGGA	-0.0377
CAACCGGG	-0.217
ATGAATAC	0.301

Sequence	PBM E-score
TCGCCCAA	-0.144
ACGCGCGG	0.108
ACAATCGA	0.0433
TATACTGA	0.198
ACAAAGTG	-0.116
CTCATAGA	0.00332
AGATAATG	0.194
CGTTTGCC	0.0429
ATGAGGAC	-0.11
GCCATCGC	-0.172
ATTATTAA	0.168
TGAAAAAA	0.199
CACGCCGG	-0.211
GCATCACC	-0.029
TTCCTAAA	-0.0368
GGTGACAA	0.183
AGAAGTCC	-0.214
CCGGCCGG	-0.373
CAATACGC	0.287
CTGAACGC	-0.164
AGGTGAGG	-0.192
CCCGGCAA	-0.317
GCCCTGCC	-0.392
GCTTGCCA	0.0866
AGCGCGCT	-0.13

Sequence	PBM E-score
TCGGCGAA	-0.155
ACTACTAG	0.0563
AGGTATTA	0.17
ATTAAGTC	0.118
CATAATCG	0.156
CTACCGCA	-0.122
AAGAGGTG	-0.0886
ACTCTAAA	0.139
CTGAAGTC	-0.0215
CAAGAACA	0.0791
GGTATGTA	0.0659
ATCTCCGC	-0.0384
ACCCATCT	-0.0673
CCACTTGC	-0.163
ACGAGGGA	0.044
CGCAAAGC	0.0256
CTCCGAAA	-0.00015
GAGATGGA	-0.0954
AAATGAAA	0.243
AGGCTTAA	-0.12
CGTCGGAA	0.172
CGACTCGA	-0.254
AGCCCATA	-0.0733
GACTGTGA	0.0327
AGGATTCC	-0.272

Sequence	PBM E-score
CTAGATGC	0.0449
CCATCTCC	-0.128
GGCCGCCA	-0.252
AGCTCTTA	0.0315
AGGAACCT	-0.246
ATAGGCAA	-0.0944
ACTCGCTC	-0.14
ATGTTATA	0.209
CTCAGGAA	-0.138
GATTAGGA	-0.064
CTGAGACA	-0.225
TTAAGCAA	0.0549
AGTTTAAG	-0.0465
CCGCGTTA	0.00254
ATCCAGTG	0.111
GCCGGACA	-0.123
ACGTCGGG	0.159
TAATTCTA	0.227
GCGCTCGA	-0.132
CTCCTGGA	-0.351
AGATAGTC	-0.0988
AAAAGGTT	-0.176
ATTCATCC	0.0207
CAGTGATC	-0.125
CCCTGAGG	-0.294

Sequence	PBM E-score
CCATAATA	0.128
TCTAGAGA	-0.275
CGTATTAG	0.382
GCGGGAAA	-0.104
GAATTACA	0.132
ATGTCGGA	-0.129
AGATCGAA	0.0696
GGCTGAAA	-0.106
CTCTCGCC	-0.29
AGTGGCCG	-0.316
CGTGACCC	0.0906
GTTTCTTA	0.117
CCCATCGC	-0.232
ACGGTTAT	0.0459
CAATGAGA	-0.00417
ACCGTCCT	-0.101
CCTTGGAG	-0.122
ACCAGGTA	-0.291
AAATTGGA	0.0977
AACGATTG	0.149
AGGTAGTG	-0.0666
GAGAAACA	0.0515
